The structures appear in SMILES notation. About 14,000 (4.5%) of roughly 310,000 compounds showed an effect of 50% or more. Effects have a minus sign here. Some of the results follow.
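Note: peak tail current of the secondary pulse compared with the same well before compound.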

For the test, the target named is human ether-à-go-go-related gene (hERG) potassium channel (human, UniProt Q12809). Kind of test: primary screen, population patch clamp on CHO cells stably expressing hERG.
Sequence of human ether-à-go-go-related gene (hERG) potassium channel (Q12809 whole entry, looked up): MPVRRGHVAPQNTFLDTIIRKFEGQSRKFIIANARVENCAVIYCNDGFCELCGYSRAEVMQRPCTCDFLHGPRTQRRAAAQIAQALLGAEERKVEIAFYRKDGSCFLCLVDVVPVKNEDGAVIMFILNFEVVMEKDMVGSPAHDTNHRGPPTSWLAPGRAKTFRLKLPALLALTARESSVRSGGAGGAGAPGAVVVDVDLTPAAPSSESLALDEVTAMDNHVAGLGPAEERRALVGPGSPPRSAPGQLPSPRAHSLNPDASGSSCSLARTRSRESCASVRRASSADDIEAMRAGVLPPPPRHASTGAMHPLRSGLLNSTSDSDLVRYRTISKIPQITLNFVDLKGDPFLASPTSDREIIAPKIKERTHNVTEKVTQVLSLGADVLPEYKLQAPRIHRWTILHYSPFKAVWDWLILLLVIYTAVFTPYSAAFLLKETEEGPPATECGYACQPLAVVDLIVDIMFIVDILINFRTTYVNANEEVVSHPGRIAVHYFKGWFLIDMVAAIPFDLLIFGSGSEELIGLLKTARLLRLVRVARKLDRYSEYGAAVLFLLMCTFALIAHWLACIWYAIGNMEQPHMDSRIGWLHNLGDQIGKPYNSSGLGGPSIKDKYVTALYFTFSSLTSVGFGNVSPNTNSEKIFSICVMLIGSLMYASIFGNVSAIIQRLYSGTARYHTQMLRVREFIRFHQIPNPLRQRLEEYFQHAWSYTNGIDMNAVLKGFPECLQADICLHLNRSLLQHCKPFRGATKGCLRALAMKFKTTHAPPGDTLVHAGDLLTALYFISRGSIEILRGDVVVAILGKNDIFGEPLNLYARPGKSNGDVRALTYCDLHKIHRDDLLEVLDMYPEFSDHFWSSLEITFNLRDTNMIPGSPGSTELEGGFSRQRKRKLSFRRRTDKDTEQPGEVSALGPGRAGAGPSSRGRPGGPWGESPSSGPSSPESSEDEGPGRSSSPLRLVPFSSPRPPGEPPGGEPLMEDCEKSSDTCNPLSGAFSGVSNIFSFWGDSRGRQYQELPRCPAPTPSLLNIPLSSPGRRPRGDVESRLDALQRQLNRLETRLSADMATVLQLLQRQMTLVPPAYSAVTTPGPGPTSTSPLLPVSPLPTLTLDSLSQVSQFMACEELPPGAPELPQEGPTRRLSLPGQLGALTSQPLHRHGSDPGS
As to `CN(C)CCNc1oc(-c2ccccc2Cl)nc1S(=O)(=O)c1ccccc1`, the “hERG current change (%, negative = inhibition) at 10uM” value is given as -35.7%.
With `CCN(CC)C(=O)Oc1ccc(NC(C)=O)cc1` the figure was 30.2%; with `CCc1cccc(CC)c1NC(=O)COC(=O)C1(C)CC1(Cl)Cl` (stereo not shown), 63.2%; with `COc1ccc2ccccc2c1/C=N/NC(=S)NCCN1CCOCC1`, 15.5%.
The value for `NC(=O)c1ccc2c(=O)n3c(-c4cccs4)csc3nc2c1` was 7.83%; that for `COc1ccc(NC(=O)c2ccco2)cc1N` was -3.25%.
With `CC(=O)c1ccc(OCC(O)CN2CCCC(C)C2)cc1.Cl` (stereo not shown) the figure was -1.2%; with `COc1ccccc1N=c1c2c([N+](=O)[O-])cc([N+](=O)[O-])cc2n(O)n1-c1ccccc1OC`, 11.9%.
`COc1ccc(C2CC(c3ccccc3)=NN2C(=O)CN2N=NC3C(=O)N(c4cccc(F)c4)C(=O)C32)cc1` (stereo not shown): the “hERG current change (%, negative = inhibition) at 10uM” value came to 1.36%.
With `CC(CN1CCOCC1)OC(=O)c1ccc(Br)cc1.Cl` (stereo not shown) the figure was -5.15%; with `C=CCn1c(SCC(=O)c2ccccc2)nnc1-c1ccc2c(c1)OCO2`, -21.4%.
Take `Cc1ccc(-c2noc(CCC(=O)Nc3ccc(C)cn3)n2)cc1`: the “hERG current change (%, negative = inhibition) at 10uM” value came to 14%.
With `CCOc1cc(C(=O)OCC(=O)NCc2ccco2)cc(OCC)c1OCC` the figure was 6.23%; with `O=C(CCC1CCCN(C(=O)c2cncs2)C1)NCc1ccc(F)c(F)c1` (stereo not shown), -12.5%; with `CCc1sc(C(C2C(=O)CC(C)(C)CC2=O)C2C(=O)CC(C)(C)CC2=O)cc1[N+](=O)[O-]`, -5.07%.
With `O=C(Nc1ccc(N2CCN(C(=O)c3ccccc3)CC2)cc1)c1cccs1` the figure was -15.3%; with `O=C(Cn1nnc(-c2ccc(CN3CCOCC3)cc2)n1)N1CCCc2ccccc21`, -23.9%.
Consider `CCCCN=C(N)/C(C(=O)OCC)=C(\O)c1ccc(OC)cc1`, for which the “hERG current change (%, negative = inhibition) at 10uM” value was -28.1%.
With `Cc1ccc2nc(-c3ccc(SCC(=O)Nc4ccc5c(c4)OCCO5)nc3)[nH]c2c1`, the “hERG current change (%, negative = inhibition) at 10uM” value is listed as -5.51%.
With `Cc1cc(C)n(CCC(=O)Nc2ccc(-c3ccno3)cc2)n1` the figure was -0.648%.
The value for `Cc1nc(S(=O)(=O)N(C)c2ccccc2)c(C#N)c(C)c1Cl` was -14.3%; that for `CCCCn1c(CCC)nc([N+](=O)[O-])c1Sc1ccc(Cl)cn1` was -53.2%; that for `Cc1ccc(S(=O)(=O)N2CCC(=O)N(CCOCc3cccc(F)c3)CC2)cc1` was -9.56%.
In the case of `Cc1ccc(NC(=O)C2CCCCC2C(=O)O)cc1Cl` (stereo not shown), the “hERG current change (%, negative = inhibition) at 10uM” value is reported as 2.46%.
Consider `CCCc1cc(=O)n2nc(N3CCC(C(=O)N4CCN(c5cccc(OC)c5)CC4)CC3)sc2n1`, for which the “hERG current change (%, negative = inhibition) at 10uM” value is on record as -40.6%.
In the case of `CCc1nc2ccccc2[nH]1`, the “hERG current change (%, negative = inhibition) at 10uM” value is listed as -27.2%.
With `CNC(=O)CSc1nnc(-c2cc(C)cc(C)c2)o1` the figure was -11.3%; with `CC(=O)N1c2ccc3ccccc3c2C(C)CC12CCCCC2` (stereo not shown), -0.0349%.
The value for `Cc1ccc2cc(C)c(SCC#N)nc2c1` was 15%.
Consider `CN1CCN(CCn2c(=S)[nH]c3ccccc3c2=O)CC1`, for which the “hERG current change (%, negative = inhibition) at 10uM” value was found to be 6.07%.
With `CCCCc1ccc(/C=C2/C(=O)ON=C2c2ccccc2)s1` the figure was 10.7%; with `O=C(NC1CCCC1)C1CCCN1C(=O)Nc1ccccc1` (stereo not shown), 19%; with `COc1ccc(N/C(N)=N/c2nc(C)c(Cc3ccccc3)c(=O)[nH]2)cc1`, 12%.
With `Cc1cc(C)n(CC(=O)NC2CCCCC2C)c(=O)c1C#N` (stereo not shown) the figure was -1.3%.
The value for `COc1cc(CC(=O)N/N=C/c2ccc([N+](=O)[O-])cc2)c([N+](=O)[O-])cc1OC` was -2.63%.
Turning to `O=C(O)c1ccc(Nc2ccc(Cl)c(Cl)c2)c([N+](=O)[O-])c1`, the “hERG current change (%, negative = inhibition) at 10uM” value was 20%.
For the molecule `CC(C)N1C(=O)CCN(C=O)c2ccccc21`, the “hERG current change (%, negative = inhibition) at 10uM” value stood at 22.8%.
The value for `Cc1cc(C)c(C(=O)c2ccc(C(=O)NC(C)(C)C)cc2)c(C)c1` was 13.1%.
With `O=C(c1ccc(C(F)(F)F)cc1)N1CCC(=O)N(C(COCc2ccc(Cl)cc2)Cc2ccccc2)CC1` (stereo not shown) the figure was -9.41%; with `CC(C)CCNC(=O)c1nnc(Cc2ccc(Cl)cc2)o1`, 11.4%.
With `Cc1cccc(-n2ccc(=O)c(C(=O)O)n2)c1` the figure was 24.7%.
With `CC(=O)NCCn1c(SCC(=O)Nc2ccc(C)cc2)nc2ccccc2c1=O`, the “hERG current change (%, negative = inhibition) at 10uM” value is 5.81%.
The value for `Cc1ccc2[nH]c(=O)c(-c3nc4cc(C)ccn4c3NCc3ccco3)cc2c1` was -18%; that for `Cn1cc(Cl)c(C(=O)NNC(=S)Nc2cccc(Cl)c2)n1` was 11.6%; that for `CCCc1nc(SCC(=O)Nc2cc(C)on2)c2c(=O)n(C)c(=O)n(C)c2n1` was -2.26%.
`Cc1cc(C(=O)CSc2nnc(-c3cccs3)n2Cc2ccccc2)c(C)n1C`: the “hERG current change (%, negative = inhibition) at 10uM” value is -46.9%.
The value for `COc1ccc(F)cc1S(=O)(=O)NCCN1CCOCC1` was 14.8%; that for `CC(C)(C)NC(=O)C(c1ccncc1)N(C(=O)CNC(=O)c1ccco1)c1ccc(F)cc1` (stereo not shown) was 7.74%.
The value for `Oc1ccc(CN2CCc3ccccc3C2)c2cccnc12` was -48.8%; that for `Cc1cc(C(=O)NCc2ccc(F)cc2)c2ccccc2n1` was 0.882%.
Take `Cc1ccc(NC(=O)Nc2ccc3c(c2)CCC3)c(C)c1`: the “hERG current change (%, negative = inhibition) at 10uM” value amounted to 19.7%.
As for `Cc1ccc2c(Cl)c(C(=O)NC3CC3)sc2c1`, the “hERG current change (%, negative = inhibition) at 10uM” value turned out to be 8.68%.
With `Oc1cccc2ccc(N3CCOCC3)nc12` the figure was 11.8%; with `COC(=O)c1cc(S(=O)(=O)N2CCN(c3cc(C)ccc3C)CC2)c[nH]1`, -23.8%; with `CCCCc1nc(SCC(=O)N2CCOCC2)c2c(=O)n(C)c(=O)n(C)c2n1`, -18%.
With `CCC(C)NC(=O)CSc1ncccc1C(=O)O` (stereo not shown) the figure was 12.3%; with `CCOc1[nH]n(-c2ccccc2)c(=O)c1C=Nc1ccc(Cl)cc1`, 6.53%.
Take `COc1cccc(/C=N/NC(=O)c2nnn(-c3nonc3N)c2CN(C)c2ccccc2)c1`: the “hERG current change (%, negative = inhibition) at 10uM” value is recorded as 8.32%.
With `Cc1ccc(S(=O)(=O)N2CCCC(C(=O)N3CCC4(CC3)OCCO4)C2)cc1` (stereo not shown) the figure was -28.5%; with `CC1CCN(C(=O)CCC(=O)Nc2nnc(C3CCCCC3)s2)CC1`, 6.21%; with `C=C1CCC(C)C(C)(CCC2=CCOC2=O)C/C=C\C=C/1C(=O)O` (stereo not shown), 7.06%.
The value for `CCOc1ccc(C(=O)N/N=C/c2cccc3cccnc23)cc1` was -15.5%.
As to `CCOC(=O)c1c(NC(=O)CSc2nnnn2-c2ccc3c(c2)OCO3)sc(C)c1C`, the “hERG current change (%, negative = inhibition) at 10uM” value was 14.3%.
With `CCOCCCNC(=O)c1ccc2c(c1)N(Cc1ccccc1)C(=O)CS2=O` (stereo not shown) the figure was 11.5%.
Regarding `CCOC(=O)Cn1ccc(NC(=O)COc2ccc(F)cc2F)n1`, the “hERG current change (%, negative = inhibition) at 10uM” value was -2.52%.
The value for `O=C(Nc1ccc(F)cc1)N1CCN(C/C=C/c2ccccc2)CC1` was -68.6%.
The value for `O=C(COC(=O)Cc1ccccc1)NC(=O)NC1CCCCC1` was 15.5%.
The value for `CCOC(=O)COc1ccc2c(c1)c(C(C)=O)c(C)n2-c1ccccc1` was 15.1%; that for `COc1ccc(CCNC(=O)c2c(C)noc2C)cc1` was -0.943%.
Turning to `Br.COc1ccc(C2=Nn3c(C)nnc3SC2)cc1`, the “hERG current change (%, negative = inhibition) at 10uM” value amounted to 0.091%.
`Cn1c[n+](C)cc1C(O)c1ccccc1.[I-]` (stereo not shown): the “hERG current change (%, negative = inhibition) at 10uM” value came out at 14.6%.
The value for `COC(=O)CCCNC(=O)c1ccc2[nH]c(C)c(C)c2c1` was 5.23%; that for `COc1ccc(/C=C2\SC(=S)N(CCC(=O)NCCc3ccc(O)cc3)C2=O)cc1` was 15.4%; that for `CCc1ccc(/C=C2\SC(=S)N(CCCC(=O)Nc3ccc(C(=O)O)cc3)C2=O)cc1` was 28.8%.
Regarding `Cc1cccc(/C(N)=N/OC(=O)c2ccc3c(c2)OCO3)c1`, the “hERG current change (%, negative = inhibition) at 10uM” value is listed as -5.58%.
With `Cc1cc(C)nc(NC(=S)Nc2ccc(Br)cc2Cl)c1` the figure was -23.8%; with `COC(=O)c1cccc(-n2c(=O)n(Cc3ccccc3)c(=O)c3[nH]cnc32)c1C`, -4.15%; with `Cc1ccc(S(=O)(=O)N2CCN(C(=O)c3cc(=O)c4ccccc4o3)CC2)cc1`, -55%.
Regarding `C#CCOCCOCCOCCNc1nc(N2CCN(C(=O)[C@H](C(C)C)n3cc(CCO)nn3)CC2)nc(N2CCN(C(=O)[C@H](CCCC[NH3+])n3cc(CCCC)nn3)CC2)n1.[Cl-]`, the “hERG current change (%, negative = inhibition) at 10uM” value is recorded as 1.61%.
The value for `Cc1cc(C)c(NC(=O)c2sc3nc4c(cc3c2N)C(=O)CC(C)(C)C4)c(C)c1` was 3.58%; that for `Cc1csc(NC(=O)C2CCCN(S(=O)(=O)c3ccc(Br)s3)C2)n1` (stereo not shown) was -12%; that for `CC(C)c1ccccc1NC(=O)CN1C(=O)c2ccccc2C1=O` was -0.723%.
With `Oc1cc2c(cc1CN1CCN(c3ccccc3)CC1)OCO2` the figure was 14.2%.
Regarding `COc1cccc2cc(-c3nnc(SCC(=O)Nc4ccc(NC(C)=O)cc4)n3C)oc12`, the “hERG current change (%, negative = inhibition) at 10uM” value is 25.4%.
As for `NC(=O)CCN(C1CCCCC1)S(=O)(=O)c1cccc2nsnc12`, the “hERG current change (%, negative = inhibition) at 10uM” value amounted to 10.5%.
For the molecule `CC1Cc2ccccc2N1S(=O)(=O)c1cccc(C(=O)NNC(=O)c2ccccc2F)c1` (stereo not shown), the “hERG current change (%, negative = inhibition) at 10uM” value was -12.3%.
The value for `COc1ccc(CC(=O)OCC(=O)N(C)C2CCS(=O)(=O)C2)cc1OC` (stereo not shown) was 8.3%; that for `CC(=O)N[C@@H](Cc1c[nH]c2ccccc12)C(=O)OCC(=O)Nc1ccc(S(=O)(=O)N(C)C)cc1` was 7.77%.
